# According to PubChem BioAssay AID686979 (National Center for Advancing Translational Sciences (NCATS), 2013):
# Where “and” joins values, the source holds several entries; their conditions need not be identical. Equal values may be shown once. The campaign covered roughly 420,000 compounds. About 50,000 (12%) were called active. The shares of active, inactive and inconclusive entries below differ from those in the screen. Calls come from the whole dose curve; as a rule, active = well fitted inhibition curve with a large enough effect; inconclusive = small, poorly fitted or top-dose-only effect; inactive = flat fitted curve, though single readings scatter. Potencies of inconclusive entries are left out as doubtful fits.
# Test: qHTS for Inhibitors of human tyrosyl-DNA phosphodiesterase 1 (TDP1): qHTS in cells in presence of CPT; note: nearly all actives have a fitted effect of over 55% in size
# Settings: chicken DT40 Tdp1-/-;hTDP1 cells + 20 nM CPT, ATP luminescence, 48 h; activity change, negative = growth inhibition: at 46.2 µM (top of the series) unless noted
# Method in brief: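 Chicken DT40 Tdp1-/- cells stably complemented with human TDP1 were seeded at 400 cells/well in medium containing 20 nM camptothecin, exposed to pin-transferred compounds, and grown at 37 °C for at least 48 hr. Viability was read as ATP luminescence.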
# % is set by controls: 0 for no effect and ±100 for the full control effect; potency is the fitted concentration of half-maximal effect; tags give direction and shape of the fitted curve.
SMILES,Potency,"activity change, negative = growth inhibition"
COc1ccc(NC(=O)CNC(c2ccccc2)c2ccccc2)cc1Cl,"inconclusive [inhibitor, single point]",
O=C(NCc1ccccc1Cl)C(=O)c1cn(CC(=O)N2CCOCC2)c2ccccc12,,inactive: -17.6%
O=C1N(Cc2cccnc2)C[C@@H]2C[C@@H](c3cccc(OCc4ccccc4)c3)N3CCC[C@@]123,"inconclusive [inhibitor, single point]",
O=C(NCC1CCCO1)c1cc2c(=O)[nH]c3ccccc3c2s1 (configuration not stated),,inactive: -1.03%
COc1cccc(CNC(=O)Cc2csc(Nc3nc(=S)[nH]c4ccccc34)n2)c1,"inconclusive [inhibitor, single point]",
COc1ccccc1CNC(=O)CC1N=C2c3ccccc3N=C(SCC(=O)Nc3ccc(F)cc3)N2C1=O (configuration not stated),active: 25.9 µM,
Cc1cc(Cl)ccc1OCCCC(=O)NNC(=O)c1ccncc1,,inactive: -5.38%
CCCS(=O)(=O)NC(=O)C1(C)CCCN(C(=O)c2ccc3c(c2)OCO3)C1 (configuration not stated),"inconclusive [inhibitor, single point]",
Cc1ccc(CCNC(=O)CS(=O)Cc2nc(-c3cccs3)oc2C)cc1 (configuration not stated),"inconclusive [inhibitor, single point]",
O=C(Nc1ccc2c(c1)CN(Cc1ccc(CO)o1)CC2)c1ccc(C(F)(F)F)cc1,"inconclusive [inhibitor, single point]",
CC(C)(C)OC(=O)C[C@H]1C/C=C\C[C@@H](CC(=O)NCCO)C(=O)N2CCC[C@H]2COC1=O,,inactive: -7.74%
CCCCCN(C(=O)CCC(=O)OCc1ccccc1Cl)c1c(N)n(CCCC)c(=O)[nH]c1=O,"inconclusive [inhibitor, single point]",
O=C(c1nc(-c2ccc(Cl)cc2)n2c1CCCCC2)N1CCN(c2ccccc2F)CC1,"inconclusive [inhibitor, single point]",
O=C(Nc1c(C(=O)N2CCOCC2)cnn1-c1ccccc1Cl)c1ccco1,,inactive: -7.26%
COc1ccccc1Nc1nn2c(=O)c3ccc(C(=O)N4CCC(C)CC4)cc3nc2s1,active: 20.6 µM and active: 23.1 µM,
COc1cc(/C=N/N2C(=O)CSC2=S)ccc1O,,inactive: -16.4%
O=C(Cn1nc(-c2ccccc2)ccc1=O)NCc1ccc(F)cc1Cl,,inactive: -27.1%
COc1ccc(S(=O)(=O)Nc2cccc(-c3ccc(N4CCOCC4)nn3)c2)cc1F,"inconclusive [inhibitor, partial curve]",
COc1ccccc1NS(=O)(=O)c1cccc(NC(=O)Nc2ccccc2)c1,"inconclusive [inhibitor, single point]",
Oc1cccc(-c2nnc(-c3cccc(O)c3)nn2)c1,"inconclusive [inhibitor, single point]",
COc1cc(NC(=O)c2c(-c3ccc(C)cc3)nnc3ccccc23)cc(OC)c1OC,,inactive: -19.9%
CC1=C(C(=O)OC2CCCC2)C(c2ccc(F)cc2F)CC(=O)N1 (configuration not stated),"inconclusive [inhibitor, single point]",
Cc1ccc(CS(=O)(=O)c2cn(CC(=O)N(C)c3ccccc3)c3ccccc23)cc1,"inconclusive [inhibitor, single point]",
O=C(CCc1ccc(S(=O)(=O)N2CCOCC2)cc1)Nc1ccc(F)cc1[N+](=O)[O-],"inconclusive [inhibitor, single point]",

SMILES,Potency,"activity change, negative = growth inhibition"
Cc1nc2scc(C)n2c(=O)c1S(=O)(=O)NCc1ccccc1Cl,inactive,
Cc1ccc(N(C(C)C(=O)O)S(=O)(=O)c2c(C)n[nH]c2C)cc1 (configuration not stated),,inactive: -0.453%
CC1CCCC/C1=N\Nc1ccc(S(N)(=O)=O)cc1[N+](=O)[O-] (configuration not stated),"inconclusive [inhibitor, single point]",
CC(=O)c1ccc(N2C(=O)N(Cc3cccc(C(F)(F)F)c3)c3ccccc3S2(=O)=O)cc1,active: 16.4 µM,
FC(F)(F)c1cc(-c2cccs2)nc(N2CCOCC2)n1,"inconclusive [inhibitor, single point]",
Cc1ccc(N=Cc2cccc(O)c2O)c(C)c1,active: 20 µM,
CC(C)=CC1C(C(=O)NCCc2ccccc2)C1(C)C (configuration not stated),,inactive: 3.48%
CC(=O)Nc1ccc(NC(=O)CCCc2nc(-c3ccc(C(C)(C)C)cc3)no2)cc1,"inconclusive [inhibitor, single point]",
COc1ccc(CNC(=S)Nc2ccc3nc(N4CCN(C)CC4)cc(C)c3c2)cc1,"inconclusive [inhibitor, single point]",
COc1cccc(C(C(=O)NC2CCCCC2)N(C(=O)c2ccco2)c2ccccc2OC)c1 (configuration not stated),"inconclusive [inhibitor, partial curve, poor fit]",
O=C1C2C3c4ccccc4C(c4ccccc43)C2C(=O)N1Cc1ccccn1 (configuration not stated),active: 23.1 µM,
Cc1ccc2c(CN3CC(C)CC(C)C3)cc(=O)oc2c1 (configuration not stated),,inactive: -10.2%
CCOc1ccc(NC(=O)CN(C)C(=O)CCNC(=O)c2ccccc2Cl)cc1OCC,,inactive: -4.23%
Cc1ccc(NC(=O)c2cc(C)nn2-c2ccccc2)cc1,"inconclusive [inhibitor, single point]",
COc1ccc(NC(=O)C[C@H]2C(=O)N(c3ccccc3)C[C@@H]2Cc2ccccc2)cc1,,inactive: -23.5%
O=S(=O)(Nc1ccc(-c2csc(-c3ccccc3)n2)cc1)c1ccc(F)cc1,"inconclusive [inhibitor, single point]",
COc1ccc(N(Cc2cccs2)C(=O)c2ccccc2C)cc1,active: 11.6 µM,
O=C(CNC(=O)c1sc2ccccc2c1Cl)Nc1ccccc1F,,inactive: -14.1%
Cn1cncc1C#Cc1c(C=O)[nH]c2ccccc12,active: 5.8 µM,
O=C1CSC(=Nc2cccc(Cl)c2Cl)N1Cc1cccnc1,"inconclusive [inhibitor, single point]",
Cn1c(=O)c2[nH]c(CCC3CCCC3)nc2n(C)c1=O,,inconclusive: -35.1% [inhibitor]
CCN(CC)c1ccc(N=Cc2cc(Br)ccc2O)cc1,active: 16.4 µM,
CCOc1cc(C(=O)Nc2ccc3oc(-c4ccc(F)cc4Cl)nc3c2)cc(OCC)c1OCC,"inconclusive [inhibitor, single point]",
O=C(NC(=S)N(Cc1ccccc1)Cc1ccccc1)C1CCCCC1,"inconclusive [inhibitor, single point]",

SMILES,Potency,"activity change, negative = growth inhibition"
Cc1[nH]c(=O)c(C(=O)/C=C/c2ccccc2)c2c1CCCC2,active: 5.8 µM,
Cn1c(SCCOc2ccccc2Cl)nnc1-c1cccs1,,inconclusive: -31.4% [inhibitor]
Cc1ccc(NC(=O)c2ncn(CCCNCc3ccc4c(c3)OCO4)n2)cc1C,"inconclusive [inhibitor, partial curve]",
O=C(Cc1ccc(Cl)cc1)c1c[nH]c(C(=O)NCCCn2ccnc2)c1,,inactive: 0.372%
CCCCNC(=O)CCC(=O)NNc1nc2ccccc2c2nc(-c3ccccc3)nn12,"inconclusive [inhibitor, single point]",
O=C(COC(=O)c1cccs1)Nc1ccc(Cl)cn1,,inactive: 1.04%
C=CCNc1nc(Cl)nc(Nc2ccc(OCC)cc2)n1,"inconclusive [inhibitor, single point]",
COCCNC(=O)C1(C)CCCN(Cc2ccc(Oc3ccccc3)cc2)C1 (configuration not stated),"inconclusive [inhibitor, single point]",
COc1ccc(OCC(=O)NCC2(N3CCN(C)CC3)CCCCC2)cc1,,inactive: -1.54%
Cc1cc(C(=O)CSc2nnc(-c3ccco3)o2)c(C)n1-c1ccc2c(c1)OCCO2,"inconclusive [inhibitor, single point]",
Cc1onc(-c2ccccc2)c1C(=O)N1CCCC(C(F)(F)F)C1 (configuration not stated),,inconclusive: -31.4% [inhibitor]
CC(C)c1nc(CNC(=O)C2CCC(=O)N(Cc3ccc(Cl)cc3)C2)no1 (configuration not stated),,inactive: -2.94%
Cc1ccccc1NC(=S)N(CCN1CCCCC1)Cc1ccco1,,inactive: -27.7%
Cc1ccc(-n2c(SCC(=O)NC3CCS(=O)(=O)C3)nc3ccccc3c2=O)cc1C (configuration not stated),"inconclusive [inhibitor, single point]",
COC(=O)CN1C(=O)C(C)(C)Oc2ccc(C(=O)Nc3cccc(OC)c3)cc21,"inconclusive [inhibitor, single point]",
N#Cc1cnc(=S)n(-c2cc(C(F)(F)F)cc(C(F)(F)F)c2)c1N,"inconclusive [inhibitor, single point]",
CC1(C(=O)Nc2ccc3c(c2)OCO3)Cc2c(-c3ccccc3)ccnc2O1 (configuration not stated),"inconclusive [inhibitor, single point]",
CCOC(CCNC(=O)c1cn(C)c(=O)c2c1c1ccccc1n2C)OCC,"inconclusive [inhibitor, partial curve]",
O=C(c1cc(C2CC2)nn1-c1ccccc1)N1CCN(c2ccccc2O)CC1,"inconclusive [inhibitor, single point]",
Cc1nc(SC2CC(=O)N(c3ccc([N+](=O)[O-])cc3)C2=O)nc2c1CCCC2 (configuration not stated),"inconclusive [inhibitor, single point]",
O=C1NC(=O)N(Cc2ccccc2)CC1Br (configuration not stated),,inactive: 2.79%
CCOC(=O)C1CCN(C(=O)Nc2ccc3nc(-c4ccco4)c(-c4ccco4)nc3c2)CC1,"inconclusive [inhibitor, single point]",
CCOc1ccccc1NC(=O)CSc1ncnc2c1oc1ccccc12,active: 29.1 µM,
O=C(/C=N/NC(=O)c1ccccc1Br)c1ccccc1,"inconclusive [inhibitor, full curve]",
